The record followed here is article PMC12136788.

The labels stand for the following.
T1: UNK ZnF1-6 (called full-length) (human, UniProt Q9C0B0 30-357)
T1 sequence: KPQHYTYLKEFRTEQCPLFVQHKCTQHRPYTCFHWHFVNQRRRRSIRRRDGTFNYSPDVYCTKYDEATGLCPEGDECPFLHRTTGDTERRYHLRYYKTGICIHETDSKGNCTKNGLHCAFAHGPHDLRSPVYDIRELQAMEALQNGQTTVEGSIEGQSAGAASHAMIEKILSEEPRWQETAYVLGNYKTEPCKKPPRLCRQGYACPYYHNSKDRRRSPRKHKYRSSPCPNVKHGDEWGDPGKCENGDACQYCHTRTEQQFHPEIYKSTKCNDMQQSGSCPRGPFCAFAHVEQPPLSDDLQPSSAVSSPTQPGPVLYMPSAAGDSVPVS

B1: chr3:113720845:113720875:-|3pUTR|ENSG00000121579|msi1_unk|total|mutant (ssRNA)
RNA: GGGAGUUCUACAGUCCGACGAUCCCUUUUUCUUCAGUAAACCCAACAACCGUCUAACCUUAAAAAUUGAGUUGAUGUCCUUACCGGUCACUACCCCUAAAUAAACCUGAAGCAGGUGUUUUCUCUUGGACAUACUAAAAAAUACAACAGAGGAUUGAGCAUCA
B2: chr1:93180074:93180188:-|CDS|ENSG00000117500|unk|total|mutant (ssRNA)
RNA: GGGAGUUCUACAGUCCGACGAUCCUGGCCGCUCUGCCUCCGGUGCUGCUGCCUGGGGCGGCCGGCUUCACACCUUCCCUCGACCGCGACUUCACCUUUACCCUUCCCGCCGGCCAGAAGGAGUGCUUCUACCAGCCCAUGCCCCAACAGAGGAUUGAGCAUCA
B3: chr15:64957256:64957357:+|3pUTR|ENSG00000166839|msi1|FALSE|unique (ssRNA)
RNA: GGGAGUUCUACAGUCCGACGAUCGCUGGAAAAUUGAAACAUAAUUUCACAAUUAUUCCUUUUUCCACCUUAAAUAAUAAGAGUAGAAUACUUUCUGUGUUUUUAUCUUAUACACAUGAAUAAAUGCUAUGGCUUAUCACAGUUCAACAGAGGAUUGAGCAUCA
B4: chr9:34241424:34241533:+|CDS|ENSG00000165006|unk|total|mutant (ssRNA)
RNA: GGGAGUUCUACAGUCCGACGAUCAACCCCAUCCUCGCCAGCUUGCAGCACAACAGCAUCCUCACACCAACUCGGGUCAGCAGCCGUGCCACGAAACAGAAAGUUCUCAGCCCACCUCACAUAAAGGCGGAUUUCAAUCUUGCUCAACAGAGGAUUGAGCAUCA
B5: chr12:102196458:102196651:-|three_prime_utr|ENSG00000183395|control|control|control (ssRNA)
RNA: GGGAGUUCUACAGUCCGACGAUCGGAGAAGCCCAUACUGCUACUAUAACUUGUGUAUGUUAAAUGUCUGUUUUAAAAGAAAGUAGUGUUAAGAUGUAUCAGUAACUGAAAUGAUAUGCUUUCUCUGUGCAUUAAACUUUGUGACAACAGAGGAUUGAGCAUCA
B6: chr9:123379744:123379845:-|3pUTR|ENSG00000119522|msi1|total|mutant (ssRNA)
RNA: GGGAGUUCUACAGUCCGACGAUCGUGUUUCAGCACCGAUUCCAGUUUCGCACCCUGGGCAGACCCCCAGGCCCCAUCCGGGACCGGGCAGAGGAGGUGCUGGCGGCCCCAGGGAAGGAGGGUGUGUACCCCAAGGCCCCCUGGCAACAGAGGAUUGAGCAUCA
B7: chr8:30843048:30843149:-|CDS|ENSG00000133863|unk|FALSE|unique (ssRNA)
RNA: GGGAGUUCUACAGUCCGACGAUCGGAUACUAUAAUUGCUUCCAGAAAGUCAGAUCAUCCAAUAAACGAAGCAACAAUUAGCAUAGAAAAUUCUAAAUUUAACAGUAAUUUGCUUGCACACCCAGAUAUUUGUUGUAUUAGUGACAACAGAGGAUUGAGCAUCA
B8: chr1:89933607:89933717:+|CDS|ENSG00000171492|unk|total|mutant (ssRNA)
RNA: GGGAGUUCUACAGUCCGACGAUCCAACUUUUGGUUCAAAUAUCCCAAAACAUGCUCAAAAGCCGAACAUUUUGUUUCAAUAUCCGGAAAGUGCUUUGAAUCCCCUUGGACGACAAAAGCGUUGUCUGAGACAGCAUGCGAAGACAACAGAGGAUUGAGCAUCA
B9: ENSG00000130508:stop:overlap|stop_codon|ENSG00000130508|stop_codon|NA|stop_codon (ssRNA)
RNA: GGGAGUUCUACAGUCCGACGAUCUGAACAUCCCAGGGGCCUGCUGUCCAGUCUGCUUACAGAAGAGGGCGGAGGAAAAGCCCUAGGCUCCUGGGAGGCUCCUCAGAGUUUGUCUGCUGUGCCAUCGUGAGAUCGGGUGGCCGACAACAGAGGAUUGAGCAUCA
B10: ENSG00000070961:be:win_2301|CDS|ENSG00000070961|bound_else_gene|NA|bound_elsewhere_windowed (ssRNA)
RNA: GGGAGUUCUACAGUCCGACGAUCAUCAUCUCCUACUGAUAAGCAUACACUGGUUAAAGGUAUAAUUGACAGCACUGUCUCAGACCAACGCCAGGUUGUAGCUGUAACUGGUGAUGGUACAAAUGAUGGCCCAGCACUAAAGAACAACAGAGGAUUGAGCAUCA
B11: chr1:179105649:179105771:-|3pUTR|ENSG00000143322|msi1|total|mutant (ssRNA)
RNA: GGGAGUUCUACAGUCCGACGAUCAGAAAGGAAACCUUGAUUCUUACCAUUGCUGCUCCAAAGGAGGCCCAGGUUAAGAGGAUCCGAGGAGACACGCGGUGCUGGGCAUUCCUGGCAGGUGUUGGGUGAUCCCCGCAGUAUGUCCAACAGAGGAUUGAGCAUCA
B12: chr22:41177882:41177989:+|CDS|ENSG00000100393|unk|total|mutant (ssRNA)
RNA: GGGAGUUCUACAGUCCGACGAUCCAAAACCUUUUGCGGACUCUCAGGUCUCCCAGCUCUCCCCUGCAGCAGCAACAGGUGCUCCGUAUCCUUCACGCCAACCCCCAGCUGUUGGCUGCAUUCAUCAAGCAGCGGGCUGCCAAGCAACAGAGGAUUGAGCAUCA
B13: chr12:95514132:95514176:+|3pUTR|ENSG00000111142|msi1_unk|FALSE|overlapping (ssRNA)
RNA: GGGAGUUCUACAGUCCGACGAUCCUUUUAAAUGCUAACUGUUUUUCCCCUUCCUGUCUAGGAAAAUGCUAUAAAGCUCAAAUUAGUUAGGAAUGACUUAUACGUUUUGUUUUGAAUACCUAAGAGAUACUUUUUGGAUAUUUACAACAGAGGAUUGAGCAUCA
B14: chr17:35724233:35724342:+|3pUTR|ENSG00000006125|msi1_unk|total|mutant (ssRNA)
RNA: GGGAGUUCUACAGUCCGACGAUCUCCUGGAGGCAGAGAUGCAGUUACCUACCCCCGCUUUUGAUGGGUUCUCUUACCUGCCGCCGCCUUAUCCCUGGUCAUUUGGAUUUUCAGUUUGCUUUUUUCUUUUUUUCCCCUCCAAACCAACAGAGGAUUGAGCAUCA

This is one part of the list.

The target in the assay is T1, UNK ZnF1-6 (called full-length). Nature of the assay: nsRBNS (natural sequence RNA bind-n-seq); RBNS binding buffer (assumed for nsRBNS): 25 mM Tris pH 7.5, 150 mM KCl, 3 mM MgCl2, 0.01% Triton X-100, 500 ug/ml BSA, 20 U/ml SUPERase-In, 4 C; UNK is unkempt and MSI1 is Musashi-1; names of the RNAs are library labels; protein concentration not given here; high values mean tight binding.
As for B1, the binding signal is 0.585 enrichment R.
With B2, the binding signal was 0.868 enrichment R.
Molecule B3 came in with a binding signal of 0.535 enrichment R.
The molecule B4 gave a binding signal of 0.846 enrichment R.
Under B5 stands 0.531 enrichment R; under B6, 0.59 enrichment R.
Regarding B7, the binding signal stood at 14.2 enrichment R.
The figure for B8 is 0.262 enrichment R; for B9 it is 0.321 enrichment R.
Under B10 stands 0.364 enrichment R; under B11, 0.722 enrichment R; under B12, 0.882 enrichment R.
The figure for B13 is 2.63 enrichment R.
As to B14, the binding signal turned out to be 0.669 enrichment R.
